Assay results taken from publication PMC3016465 (Proteins, 2011).

Legend:
EPR spectroscopy = biological target: the molecule itself; experiment: EPR spectroscopy
[1] = biological target: oligomeric Aβ(1-40) (AβO); experiment: EPR spectroscopy

Kd [1]: 27 µM
B1: apoE[…]C, spin labeled at position 264 (natural protein)
chain: not shown
modifications: MTS-SL nitroxide spin label on the Cys at position 264
binding result (EPR spectroscopy): binds
